# Results published in the supplement of paper PMC3334620.
# The full ranking holds about 33,000 sequences; the median of “E-score (-0.5 to 0.5)” is about -0.01, and the highest 2% start at about 0.26. The list shows a part of the results.
# Molecular target: Ste12 (UniProt P13574)
# Test: PBM E-score (8-mer binding enrichment) (E-score (-0.5 to 0.5)); higher = stronger / more preferred TF binding; most listed sequences are background and not binding sites
# Details: protein concentration: 200 nM; construct: GST-DNA-binding domain
# In short: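 Bound GST-tagged yeast transcription factors, applied at about 100-200 nM to double-stranded universal all-10-mer Agilent arrays, were detected with fluorescent anti-GST. Scans were normalised with masliner. A modified Wilcoxon-Mann-Whitney statistic, the E-score, was assigned to each ungapped eight-base word pooled with its reverse complement by the Universal PBM Analysis Suite.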
row,Sequence,PBM E-score
1,CGAGTCTC,-0.155
2,CGACCTAA,0.141
3,ATTGCAGC,0.0218
4,ACAGCGGG,-0.171
5,GCTACGTA,-0.128
6,ACTTGCAT,0.0613
7,ATGCCTGG,-0.00205
8,CCCATACA,-0.0112
9,ACCTAAAC,0.168
10,GTTCTACA,0.031
11,CGGCTGCA,-0.0379
12,AGAAACCA,0.194
13,GGGGAAAA,0.112
14,ATCCTAGC,-0.0573
15,AGATCGCC,-0.0132
16,CAGAACGA,0.106
17,CATAGGAC,-0.218
18,GGGCATGA,-0.143
19,CCCCGATC,-0.0934
20,ACGAGGCT,0.0649
21,CTAATGGA,0.0429
22,CTATATTC,-0.0299
23,TCAGCAGA,-0.131
24,AGTACACT,-0.143
25,GTTCCGAA,0.137

row,Sequence,PBM E-score
1,TAGGGGGA,-0.257
2,AACTGGTA,-0.00841
3,TTTCAAAA,0.343
4,CCGAGCAG,0.0906
5,AACACCAG,-0.108
6,ATTAACCA,0.0111
7,AACGAGGT,0.0102
8,GTGTTTTA,0.405
9,CCTCCGGA,-0.119
10,ATTCTCTC,0.053
11,ATCATCAA,0.156
12,TCGATGAA,0.152
13,GCTACAAC,-0.161
14,TAGCGGGA,-0.142
15,TAACTGCA,-0.141
16,CTACAATA,0.173
17,CGCTCGTA,-0.0524
18,AAGTGAGA,-0.0648
19,ACAGTAAG,0.0217
20,ATCTCCAA,0.0282
21,CCGGAAGC,-0.0132
22,TAAGTGGA,0.175
23,AGTCGCTG,-0.0244
24,ATTCAACC,0.0538
25,AGTTAAAT,0.163

row,Sequence,PBM E-score
1,GTCAAGCA,-0.37
2,CGGTCTCA,-0.0267
3,GTCCCTCA,-0.0769
4,AAGAACTT,-0.0547
5,ACCCAACC,-0.0602
6,TCGGCAGA,-0.0201
7,ATACCACA,0.0256
8,ATACGGTA,0.0398
9,GCGGTAGC,0.0401
10,GAGTAGGC,-0.154
11,CACCTGGC,0.0279
12,AGGTGCCA,-0.00545
13,CTTGATGC,-0.0799
14,AGATGGAG,-0.0199
15,ATAATGAT,0.167
16,GAAAAAAC,0.174
17,CTTTCTCA,0.175
18,GCGTCTCC,-0.0864
19,CTTCGTTC,-0.0231
20,CGAGACCC,0.0643
21,CGTGTTCC,0.0784
22,GAGACGAA,0.00731
23,AGGGGGAC,-0.317
24,CCAGGTGA,-0.00807
25,ACCGCTTC,-0.0945

row,Sequence,PBM E-score
1,AAATCAAG,0.114
2,ACATGACA,0.104
3,CCAAATAA,0.124
4,GTATCTTA,0.111
5,ATGGTATG,-0.211
6,ACCTAACC,-0.0859
7,CCAATCTC,0.0596
8,CAGATGAG,-0.0391
9,TACGGCTA,0.0636
10,ATCGGTTC,0.0264
11,AGCCTTCC,-0.215
12,AGCCATGG,-0.192
13,GCAGGTGA,-0.0702
14,CTCATGTC,-0.0818
15,AACGGCTT,-0.14
16,AGGGCCAT,-0.202
17,AGCCCTGC,-0.172
18,GTTCGTCA,-0.175
19,CGTGGGGA,0.0623
20,TAAACCGA,0.164
21,CTAGGGCC,-0.187
22,CCGATCAC,0.0198
23,AGCTTGGC,-0.0622
24,ACTCATTG,-0.19
25,AGCACGCG,-0.101

row,Sequence,PBM E-score
1,ACCGGGAA,0.23
2,GGGAGTAA,0.128
3,AGGGGTAC,-0.00096
4,CTATTCAA,0.0745
5,GTGACACA,0.154
6,CAGACGCG,-0.101
7,AGTAGATG,0.113
8,CAGGCCAC,0.00041
9,AGCTCCGA,0.0346
10,CCGCTAAG,0.109
11,CGGGCCCG,0.0973
12,GTAGTTAA,0.0674
13,ACTTAGGA,-0.0167
14,GCCTTTGA,0.175
15,GACTGTAA,-0.0138
16,GGAGCCCA,-0.172
17,AGAGCTGG,-0.109
18,GGGGCCAA,-0.0931
19,CACCCCTA,0.0496
20,CTGCCTGC,-0.334
21,AGTAGACC,-0.1
22,AGTTTAAC,0.0433
23,GATGCGGC,0.00142
24,CGAGACTA,0.00317
25,CGCTTGGC,-0.231

row,Sequence,PBM E-score
1,CGGACCTC,-0.102
2,GCTATAGA,-0.153
3,CCGGAGTC,-0.221
4,AGCCTGGC,-0.17
5,CGGAACGC,0.0364
6,GCAGGGGA,-0.104
7,GTAGCCCA,-0.21
8,CTGTATCC,0.00622
9,CAAGCTCG,-0.0692
10,CCGTTGGC,-0.0445
11,ATAAACGC,-0.0196
12,GCTAAGAC,-0.00979
13,AATCTCTA,0.176
14,CGTTGCAA,0.128
15,ATACCCTA,0.0675
16,CAATATGA,0.0995
17,CACCGCCG,-0.0467
18,GAGGCCCA,-0.00607
19,AGCCCCTA,-0.194
20,GTAGGAGA,-0.269
21,AAAGACAG,0.116
22,CCCAGTAG,-0.0811
23,GGCATAAA,0.26
24,ACAGTGAA,0.0715
25,GACCTGAC,-0.00638

row,Sequence,PBM E-score
1,AGAGGGCG,-0.0365
2,CTCGAGAG,-0.113
3,GGATAACC,-0.166
4,AAGTTATC,0.0496
5,CCTACTCA,0.0472
6,CGTTTCCC,0.165
7,AATGTACC,-0.164
8,TGAACTAA,0.112
9,CCCATCTC,0.0265
10,CTCCGTAA,-0.156
11,CGCGACAG,0.0317
12,CGCACAGA,-0.0403
13,AAGCGGAG,-0.202
14,AGAAACGA,0.207
15,ATGCCCCG,-0.102
16,ACATCCCC,0.321
17,ACACGTTG,-0.3
18,TACCGCAA,-0.0223
19,CCTCTGAG,0.0102
20,CCCCCAAA,-0.113
21,CATCCTGA,0.0395
22,CCATGGTA,0.033
